Measured values reported in patent US20220267436A1 (NANJING GENSCRIPT BIOTECH, published 2022).

Biological target: T1, human LAG-3 (human, UniProt P18627 23-525)
T1 construct: whole, on cells; also called LAG-3 antigen
T1 sequence (looked up): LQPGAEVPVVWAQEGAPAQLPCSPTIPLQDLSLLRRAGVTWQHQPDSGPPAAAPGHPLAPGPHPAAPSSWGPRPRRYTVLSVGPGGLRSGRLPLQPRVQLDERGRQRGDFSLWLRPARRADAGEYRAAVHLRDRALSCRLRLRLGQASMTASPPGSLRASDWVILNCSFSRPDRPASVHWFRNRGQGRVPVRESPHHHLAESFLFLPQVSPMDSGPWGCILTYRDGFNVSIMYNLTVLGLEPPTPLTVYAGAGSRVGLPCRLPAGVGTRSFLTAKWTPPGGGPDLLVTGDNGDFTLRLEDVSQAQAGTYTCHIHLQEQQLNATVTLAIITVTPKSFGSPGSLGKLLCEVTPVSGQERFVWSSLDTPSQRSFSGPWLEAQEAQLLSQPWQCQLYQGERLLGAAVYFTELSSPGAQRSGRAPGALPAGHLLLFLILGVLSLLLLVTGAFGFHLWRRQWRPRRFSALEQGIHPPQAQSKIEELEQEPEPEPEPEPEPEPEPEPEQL
Experiment: flow cytometry on CHO-K1 cells expressing human LAG-3
Experimental: For the constructed series of bispecific antibodies, the affinity of these samples with antigens was measured by using a flow cytometer. […] Then, an antibody-antigen binding curve was generated based on the geometric mean, raw data of four parameters was plotted by using the […] Prism V6.02 software, and a best fitted value program was compiled to analyze EC₅₀.

binding result: binds
B1: Fc fusion protein sdAb-LAG3-IgG4PE (Fc fusion)
chain: EVQLVESGGGLVQPGGSLRLSCAASGYTVSSYCMGWFRQAPGKGREGVSAIDSDGSVSYADSVKGRFTISKDNSKNTLYLQMNSLRAEDTAVYFCAADLCWVDQDQGEYNTWGQGTLVTVSS[letters of human IgG4 Fc with changes omitted]
notes: also called H7; sdAb control
